Laboratory results taken from PubChem BioAssay AID463173 (ICCB-Longwood Screening Facility, Harvard Medical School, 2010).
The campaign covered roughly 52,000 compounds. About 1,700 (3.3%) were called active. Cut-off read from the data, not from the text of the source: active = survival mostly below about 52% (no sharp cut-off); inactive = mostly above about 56%. Some of the results follow.

Test system: Wild type
Assay: growth inhibition of S. aureus wild type versus tarO mutant, primary screen, teichoic acid synthesis inhibitors, RN4220, OD600 (AID 463173)
Conditions: S. aureus RN4220 wild type/DeltatarO growth, OD600, 18 h, active compounds read low, screened at 18.75 µg/mL (by protocol)

Question: How did the survival turn out when O=C(Nc1cccc(F)c1)C1CCN(c2nc3ccccc3nc2C(F)(F)F)CC1 was run?
Answer: inactive: 88%

Question: Which survival does the source give for Cc1ccc(-n2c3c(c(=O)[nH]c2=O)C(NC(=O)C(C)(C)C)(C(F)(F)F)C(=O)N3)cc1 (stereo unspecified) here?
Answer: inactive: 68%

Question: How did the survival turn out when CCc1ccccc1-n1nnc(-c2nc(-c3ccccc3F)no2)c1C was run?
Answer: inactive: 124%

Question: COc1cccc(C(=O)NCC(c2ccc3c(c2)OCO3)N2CCN(C)CC2)c1 (stereo unspecified) was tested. Which survival did it give?
Answer: inactive: 121%

Question: For Cn1c(=O)n(C)c2cc(NS(=O)(=O)c3ccc(Cl)cc3)c(NCc3ccccc3)cc21, which survival is on record?
Answer: inactive: 134%

Question: How did the survival turn out when Cc1[nH]c2ccccc2c1C1(O)C(=O)Nc2ccc(Cl)cc21 (stereo unspecified) was run?
Answer: inactive: 62%

Question: With COc1cc(CNCCCSc2nnnn2C)cc(Br)c1OC as the molecule, how does the survival read?
Answer: inactive: 86%

Question: With COc1cccc(NC(=O)CSC2=Nc3ccccc3C3=NC(CCC(=O)NC4CCCCC4)C(=O)N23)c1 (stereo unspecified) as the molecule, how does the survival read?
Answer: inactive: 77%

Question: CC(Nc1ccccc1)c1ccncc1 (stereo unspecified) was tested. Which survival did it give?
Answer: inactive: 110%

Question: Which survival does the source give for COc1ccc(OC)c(NC(=O)CCCOc2cc(=O)n(C)c3ccccc23)c1 here?
Answer: inactive: 64%

Question: COc1ccc(NC(=O)CSc2nc3ccccc3n2CC(=O)NCc2ccc(F)cc2)cc1 was tested. Which survival did it give?
Answer: active: -6%

Question: With CC(C)NC(=O)c1ccc(OC2CSC2)cc1 as the molecule, how does the survival read?
Answer: inactive: 103%

Question: For COc1ccc(-c2c3c(=O)n(C)c(=O)n(C)c3c3n2-c2ccccc2NC3c2ccccc2OC)cc1 (stereo unspecified), which survival is on record?
Answer: inactive: 64%

Question: For O=C(O)CCN1C(=O)CSC1=O, which survival is on record?
Answer: inactive: 106%

Question: Which survival does the source give for COC(=O)c1ccc(NC(=O)c2cc3cc(C)ccc3n2C)cc1 here?
Answer: inactive: 92%

Question: For CCOc1ccc(NC(=O)CSc2nnc3c(C)cc4ccccc4n23)cc1, which survival is on record?
Answer: inactive: 132%

Question: COc1ccc(S(=O)(=O)N2CCC(C(=O)Nc3ccc(Oc4ccccc4)cc3)CC2)cc1OC was tested. Which survival did it give?
Answer: inactive: 80%

Question: Which survival does the source give for CC1=CC(c2ccccc2)NC(=S)N1 (stereo unspecified) here?
Answer: inactive: 108%

Question: For CCCCSCCCNC(=O)c1cn(CC)c2ccc(S(=O)(=O)N3CCOCC3)cc2c1=O, which survival is on record?
Answer: inactive: 80%

Question: Which survival does the source give for COc1ccc(NC(=O)c2ccc(-c3nc(COc4ccccc4)c(C)o3)cc2)cc1 here?
Answer: inactive: 84%

Question: Cc1cccc(NC(c2cccc(Cl)c2)c2ccc3cccnc3c2O)n1 (stereo unspecified) was tested. Which survival did it give?
Answer: active: 4%

Question: Which survival does the source give for COc1cc(NC(=O)Nc2nnc(N3CCCCC3)s2)cc(OC)c1 here?
Answer: inactive: 72%

Question: How did the survival turn out when COC(=O)c1ccccc1NC(=O)Cn1nc(C)c2nn(-c3ccc(Cl)cc3)c(C)c2c1=O was run?
Answer: inactive: 75%

Question: For O=c1c2[nH]c3ccccc3c2nc(SCc2ccccc2F)n1-c1ccc(F)cc1, which survival is on record?
Answer: inactive: 84%

Question: Which survival does the source give for CCc1ccccc1NC(=O)Cn1nc(-c2cc(C)ccc2C)c2c(c1=O)CCCC2 here?
Answer: inactive: 78%

Question: Cc1ccc2c(CC(=O)Nc3ccc(S(=O)(=O)N4CCC(C)CC4)cc3)coc2c1 was tested. Which survival did it give?
Answer: inactive: 76%

Question: CC1CCc2nc3ccc(S(=O)(=O)N4CCC(C(=O)NCc5ccccc5Cl)CC4)cc3c(C(=O)O)c2C1 (stereo unspecified) was tested. Which survival did it give?
Answer: inactive: 127%

Question: How did the survival turn out when Cc1nn(-c2ccccc2)c2c1N(CCCC(=O)NCc1ccc(OC(C)C)cc1)C(=O)CS2 was run?
Answer: inactive: 72%

Question: How did the survival turn out when Cc1ccc(CNC(=O)c2ccc3oc(=O)n(Cc4ccccc4)c3c2)cc1 was run?
Answer: inactive: 57%

Question: How did the survival turn out when COc1ccc(Cl)cc1NC(=O)C1CCCN(S(=O)(=O)c2ccc3c(c2)CCCC(=O)N3)C1 (stereo unspecified) was run?
Answer: inactive: 131%

Question: With Cc1ccccc1OCC(=O)Nc1ccc(OCc2cc(=O)n3ccccc3n2)cc1 as the molecule, how does the survival read?
Answer: inactive: 98%

Question: CCC1Oc2ccc(C)cc2N(CC(=O)NC(C)C)C1=O (stereo unspecified) was tested. Which survival did it give?
Answer: inactive: 102%

Question: O=C(CSc1nc2c(c(=O)[nH]1)CN(Cc1ccc3c(c1)OCO3)CC2)Nc1cc(F)ccc1F was tested. Which survival did it give?
Answer: inactive: 83%

Question: For CCOC(=O)c1c(NC(=O)CSc2cn(CCNC(=O)c3ccc(OC)cc3)c3ccccc23)sc2c1CCC2, which survival is on record?
Answer: inactive: 72%

Question: CC1(C)CC(NC(=O)c2ccccc2Cl)CC(C)(C)N1 was tested. Which survival did it give?
Answer: inactive: 104%

Question: How did the survival turn out when COc1ccc(NC(=O)CSc2nc(-c3ccccc3)cc(-c3cc(OC)c(OC)c(OC)c3)c2C#N)c(OC)c1 was run?
Answer: inactive: 82%

Question: Which survival does the source give for COc1ccccc1-c1cc(C(=O)Nc2c(C)nn(Cc3ccc(Cl)cc3)c2C)no1 here?
Answer: inactive: 49%

Question: For COc1ccc(-c2nnc(SCC(=O)Nc3cccc(C)c3)s2)cc1, which survival is on record?
Answer: inactive: 119%

Question: With CC(=O)N1CCc2cc(CNS(=O)(=O)c3cccs3)ccc21 as the molecule, how does the survival read?
Answer: inactive: 63%

Question: CCCCOC(=O)c1ccc(NC(=O)C2(c3cccs3)CCOCC2)cc1 was tested. Which survival did it give?
Answer: inactive: 72%

Question: How did the survival turn out when CCCCN(CCCNC(=O)c1cc(Nc2ccc(OC)cc2OC)nc2ccccc12)Cc1ccccc1 was run?
Answer: inactive: 85%

Question: How did the survival turn out when CCOc1ccccc1N(C)C(=O)c1sc2nc3n(c(=O)c2c1C)CCCC3 was run?
Answer: inactive: 85%

Question: For Cc1nn(CC(=O)Nc2ccc(C(C)C)cc2)c(=O)c2c(C)n(-c3ccc(Cl)cc3)nc12, which survival is on record?
Answer: inactive: 90%

Question: For COc1ccc(NC(=O)CSc2nccn2C2CCCC2)cc1OC, which survival is on record?
Answer: inactive: 72%

Question: COc1ccc(-c2cn3nc(N4CCCC(C(=O)Nc5ccccc5F)C4)sc3n2)cc1 (stereo unspecified) was tested. Which survival did it give?
Answer: inactive: 92%

Question: With Cn1ccc2cc(S(=O)(=O)N3CCN(C(=O)Nc4cccc(F)c4)CC3)ccc21 as the molecule, how does the survival read?
Answer: inactive: 74%

Question: Which survival does the source give for COc1ccc(NC(=O)C(c2ccc(OC)cc2)N(C)C(=O)Cc2cccs2)cc1 (stereo unspecified) here?
Answer: inactive: 93%

Question: With Cc1ccc(Cn2cc(S(=O)(=O)c3ccccc3)c(=O)c3cc(F)c(N4CCOCC4)cc32)cc1 as the molecule, how does the survival read?
Answer: inactive: 58%

Question: How did the survival turn out when O=C1C2C3c4ccccc4C(c4ccccc43)C2C(=O)N1CN1CCOCC1 (stereo unspecified) was run?
Answer: inactive: 111%

Question: With CC(C)(Oc1ccc(Cl)cc1)C(=O)Nc1ccc(-c2nc3ncccc3o2)cc1 as the molecule, how does the survival read?
Answer: inactive: 74%

Question: How did the survival turn out when COc1ccccc1N1CCN(S(=O)(=O)CCNC(=O)c2cc(=O)c3ccccc3o2)CC1 was run?
Answer: inactive: 82%

Question: Which survival does the source give for CC(C)(C)c1nnc(NS(=O)(=O)c2ccc(F)cc2)s1 here?
Answer: inactive: 102%

Question: Which survival does the source give for COc1cccc(C(=O)CN2C(=O)C(C)(C)Oc3ccc(C(=O)N4CCOCC4)cc32)c1 here?
Answer: inactive: 109%

Question: How did the survival turn out when Cc1ccccc1C(=O)Nc1cccc(-c2nc3cccnc3s2)c1 was run?
Answer: inactive: 87%

Question: How did the survival turn out when COc1ccc(C(CNC(=O)COc2cc(C)c(Cl)c(C)c2)N2CCCCC2)cc1 (stereo unspecified) was run?
Answer: inactive: 78%

Question: For COc1cccc(N2CCN(C(=O)CCn3nc(C)c(S(=O)(=O)N4CCCC4)c3C)CC2)c1, which survival is on record?
Answer: inactive: 76%
